Experimental data reported in publication PMC4336329 (PLoS ONE, 2015).
Screen size: about 310,000 compounds; about 14,000 (4.5%) showed an effect of 50% or more. Effects have a minus sign here. Some of the results follow.

Target: human ether-à-go-go-related gene (hERG) potassium channel (human, UniProt Q12809)
Test: primary screen, population patch clamp on CHO cells stably expressing hERG
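Further: peak tail current of the secondary pulse compared with the same well before compound.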

human ether-à-go-go-related gene (hERG) potassium channel, sequence (Q12809 whole entry, looked up): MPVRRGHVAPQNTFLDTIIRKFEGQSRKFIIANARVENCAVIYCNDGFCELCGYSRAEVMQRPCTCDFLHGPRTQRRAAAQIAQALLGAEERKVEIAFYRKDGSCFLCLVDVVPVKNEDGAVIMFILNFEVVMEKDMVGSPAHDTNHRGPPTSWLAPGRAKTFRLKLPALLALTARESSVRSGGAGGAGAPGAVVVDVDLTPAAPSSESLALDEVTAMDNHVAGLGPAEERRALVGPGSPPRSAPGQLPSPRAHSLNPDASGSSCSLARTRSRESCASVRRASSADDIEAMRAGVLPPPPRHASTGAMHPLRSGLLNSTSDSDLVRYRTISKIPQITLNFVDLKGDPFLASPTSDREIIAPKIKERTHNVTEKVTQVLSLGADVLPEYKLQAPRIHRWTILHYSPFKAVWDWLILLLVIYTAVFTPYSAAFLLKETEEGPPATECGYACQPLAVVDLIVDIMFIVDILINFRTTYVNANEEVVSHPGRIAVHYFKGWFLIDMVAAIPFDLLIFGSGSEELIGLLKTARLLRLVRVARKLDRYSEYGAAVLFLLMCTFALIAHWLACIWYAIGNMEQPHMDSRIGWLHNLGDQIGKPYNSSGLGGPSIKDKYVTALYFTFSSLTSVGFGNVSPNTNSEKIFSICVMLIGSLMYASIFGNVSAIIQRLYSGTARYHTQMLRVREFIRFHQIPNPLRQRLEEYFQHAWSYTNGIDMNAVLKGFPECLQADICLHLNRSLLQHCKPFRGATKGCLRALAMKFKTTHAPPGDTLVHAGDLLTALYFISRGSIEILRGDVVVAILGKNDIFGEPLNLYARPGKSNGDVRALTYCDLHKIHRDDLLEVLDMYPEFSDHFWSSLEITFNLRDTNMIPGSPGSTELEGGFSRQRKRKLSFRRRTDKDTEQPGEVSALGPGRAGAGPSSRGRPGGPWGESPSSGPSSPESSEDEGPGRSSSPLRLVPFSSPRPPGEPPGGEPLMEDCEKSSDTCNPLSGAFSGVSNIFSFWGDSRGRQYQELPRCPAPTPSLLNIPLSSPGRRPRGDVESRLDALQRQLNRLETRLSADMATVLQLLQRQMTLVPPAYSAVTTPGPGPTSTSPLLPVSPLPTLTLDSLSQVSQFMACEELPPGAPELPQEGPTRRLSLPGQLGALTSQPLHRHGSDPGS

Compound | hERG current change (%, negative = inhibition) at 10uM
OC(CNCC1(N2CCCCC2)CCCCC1)COc1ccc(Cl)cc1Cl (centres unmarked) | -73.7%
COCc1c(C(=O)OCc2c(C)noc2C)oc2ccccc12 | -9.27%
CC1SC(c2cccc(Cl)c2)NC1=O (centres unmarked) | 8.55%
COc1ccc(-c2cc(C(=O)N3CCC3)c3ccccc3n2)cc1OC | -1.93%
COc1ccc(C2CC(c3cccs3)Nc3nnnn32)cc1 (centres unmarked) | -13.3%
Cc1ccc(/C(O)=C2\C(=O)C(=O)N(CC(C)O)C2c2ccc(N(C)C)cc2)cc1 (centres unmarked) | 14.7%
O=C(CN1CCC(C(=O)c2ccc(F)cc2)CC1)Nc1ccccc1 | -29.7%
O=C(NNC(=S)Nc1ccc(F)cc1F)c1ccco1 | -10.2%
S=C(c1ccc(Cl)cc1)N1CCOCC1 | 2.79%
COc1ccc(CCNC(=O)c2ccc(Cl)nc2)cc1 | 4.32%
COc1ccccc1NS(=O)(=O)c1ccc(NC(C)=O)cc1 | 5.3%
CC1=NN(C(=O)c2ccccc2C)C(O)(c2ccc(Cl)cc2)C1 (centres unmarked) | 13.4%
CCn1c(N2CCN(S(=O)(=O)CC)CC2)nc2ccccc21 | -37.7%
CCCNC(=O)[C@@H]1CCCN1C(=O)C1CCN(S(=O)(=O)c2ccc(C)cc2)CC1 | 7.97%
COCc1cc(C)nc(OCC(=O)N/N=C/c2ccc(O)cc2)c1C#N | -10.9%
CCc1ccc(-c2nc(CS(=O)CC(=O)NCc3ccccc3)c(C)o2)cc1 (centres unmarked) | -14.9%
Cc1ccc(CN2CCN(Cc3ccon3)CC2CCO)cc1 (centres unmarked) | -11.1%
COc1ccc(C(=S)N2CCN(c3cccc(Cl)c3)CC2)c(OC)c1 | 3.25%
COC(=O)c1cc(OC)nc2c1c(=O)n(C)c(=O)n2C | 3.17%
O=C(O)c1cn(-c2ccccc2)nc1-c1ccncc1 | 35.1%
COc1ccc(CNC(=S)NCc2ccc(Cl)cc2)cc1OC | -19.9%
CCOC(=O)C1=C(C)NC(C)=C(C(=O)OCC)C1/C=C/c1ccccc1 | 0.683%

Compound | hERG current change (%, negative = inhibition) at 10uM
CCOC(=O)C1=C(N)Oc2ccc3ccccc3c2C1c1ccc(O)c(OC)c1 (centres unmarked) | 8.82%
Cc1nc(N2CCN(C(=O)c3cccs3)CC2)c2c3c(sc2n1)CCCC3 | -63.8%
COc1ccccc1NC1=NC(c2ccc(Cl)cc2)N=C(N)N1 (centres unmarked) | -6.65%
CCCCCCCC1c2c(c(C)c(C)oc2=O)Oc2c(C)c(C)oc(=O)c21 | 11.9%
Cc1ccc(C(C(=O)NC2CCCCC2)N(CCCN2CCOCC2)C(=O)c2snc(C(N)=O)c2N)cc1 (centres unmarked) | -17.8%
O=C(NCCC1CCCCN1S(=O)(=O)c1ccc(Cl)cc1)C(=O)NCc1cccnc1 (centres unmarked) | -46.3%
Cc1ccc(CNC(=O)COC(=O)c2ccc(S(=O)(=O)N(C)C)cc2)cc1 | 11%
Cc1ccc(CNC(=O)c2ccc(N3CCC4(CC3)CC(c3cccc(Br)c3)=NO4)c(NC(=O)c3ccccc3)c2)cc1 | 11.9%
COc1ccc(N2CCN(C(=O)C3CC(=O)N(c4ccc(C)cc4)C3)CC2)cc1 (centres unmarked) | -35.1%
Cc1ccc(C(=O)COC(=O)c2cc(Cl)ccc2O)cc1[N+](=O)[O-] | 10.4%
CCn1c(SCC(=O)Nc2cc(C)on2)nc2c(c1=O)SCC2 | 13.8%
COc1ccc(CN2CC(C(=O)NCCc3ccccc3)CC2=O)cc1 (centres unmarked) | -29.7%
COC1CCN(C(=O)CC2C(=O)NCCN2CC2CCCCC2)CC1 (centres unmarked) | 13.3%
N#CC1=C(N)N2C(=C(C#N)C1c1cccc(Br)c1)Nc1ccccc12 (centres unmarked) | -11.4%
COc1cc(-c2c(-c3ccc4c(c3)OCO4)noc2-c2ccsc2)ccc1F | 10.1%
COc1ccc(N(CC(=O)Nc2ccccc2C)S(=O)(=O)c2ccccc2[N+](=O)[O-])c(OC)c1 | -4.45%
O=Cc1cc(-c2ccccc2)[nH]c1-c1ccccc1 | 22.5%
COc1ccccc1N1CCN(CC(O)COc2c(OC)cccc2OC)CC1.Cl (centres unmarked) | -48.4%
O=c1[nH]n(-c2ccccc2)c(=O)c(Cl)c1Cl | 0.533%
CCOC(=O)c1cc(C#N)c(N2CCCC2)nc1-c1ccccc1 | -7.5%
COC(=O)C1CN(C(=O)c2cccc(OC(F)F)c2)c2ccccc2O1 (centres unmarked) | 4.03%
O=C(Cc1csc(Nc2nc(=S)[nH]c3ccccc23)n1)NCc1cccc(Cl)c1 | -16.3%
